Assay results taken from the BET-seq Pho4 binding data (Le et al. 2018).
The other results are listed elsewhere or left out. The energies were worked out here from pooled read counts, against the library average; single values are noisy.

target: T1, Pho4 (S. cerevisiae) (UniProt P07270); experiment: relative binding free energy (BET-seq); higher = weaker binding; details: reference: library average
T1 sequence: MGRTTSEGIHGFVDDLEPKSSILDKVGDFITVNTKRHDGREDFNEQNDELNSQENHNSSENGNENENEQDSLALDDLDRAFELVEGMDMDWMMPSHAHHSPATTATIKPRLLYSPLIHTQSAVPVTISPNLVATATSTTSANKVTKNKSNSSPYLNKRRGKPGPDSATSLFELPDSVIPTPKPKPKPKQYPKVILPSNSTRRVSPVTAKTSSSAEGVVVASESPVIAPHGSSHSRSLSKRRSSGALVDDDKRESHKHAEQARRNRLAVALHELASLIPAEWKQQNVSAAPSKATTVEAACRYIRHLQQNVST

| Sequence | relative binding free energy [kcal/mol] |
| --- | --- |
| AATGGCACGTGGGTTT | -0.13 |
| AATTTCACGTGGAAGG | 0.16 |
| TTGCTCACGTGGGTGA | 0.15 |
| TGCACCACGTGGGGTT | -0.26 |
| CAAGGCACGTGGGCTG | -0.22 |
| GGTTACACGTGGATAT | 0.11 |
| TGTGTCACGTGGGTAA | -0.03 |
| TTAGACACGTGCTGTA | -0.07 |
| TGCGTCACGTGTAGTT | 0.11 |
| GGAGTCACGTGGCGTA | 0.1 |
| AGGGTCACGTGGTCGT | -0.13 |
| GTGAGCACGTGTGGGA | 0 |
| ATGTACACGTGTGCGA | 0.1 |
| CCGGTCACGTGGGCGG | -0.16 |
| ACGGACACGTGGGGGA | -0.18 |
| TTTACCACGTGTTTTA | 0.01 |
| GGTATCACGTGATTAA | 0.31 |
| GGTCGCACGTGTGAGA | 0.22 |
| GGCGTCACGTGGTAAA | 0.27 |
| GTCGTCACGTGGGGCT | 0.1 |
| ATTGGCACGTGACTCT | 0.19 |

| Sequence | relative binding free energy [kcal/mol] |
| --- | --- |
| CAAGGCACGTGTGTGT | -0.08 |
| GAATTCACGTGCTGTT | 0.27 |
| GGATTCACGTGGTTAT | 0.37 |
| GTGTGCACGTGAGAAG | 0.21 |
| TAATACACGTGAGTGG | 0.27 |
| TATCACACGTGGGGTG | -0.03 |
| ATTTTCACGTGGCTGT | 0.15 |
| TTGTGCACGTGGTCAG | -0.16 |
| AAAAGCACGTGCTGTG | -0.07 |
| TCTGGCACGTGGGAAT | -0.16 |
| TGTGGCACGTGCAAAG | -0.04 |
| TGTTACACGTGGGTAG | 0 |
| ATTGGCACGTGAAACG | 0.19 |
| GGGGTCACGTGAATTT | 0.34 |
| AAGTACACGTGCTTTT | 0.1 |
| TTTCTCACGTGCTTAT | 0.15 |
| GCGGGCACGTGTGGCA | -0.05 |
| GAAGACACGTGGGTGA | -0.08 |
| GAGGGCACGTGTGAGA | 0.11 |
| AGGTCCACGTGTTGTA | -0.04 |
| TAGGTCACGTGTTGAA | 0.08 |

| Sequence | relative binding free energy [kcal/mol] |
| --- | --- |
| AAGGTCACGTGGCGTA | -0.03 |
| TTCGGCACGTGGAATT | 0.14 |
| AAAGGCACGTGTTTAA | -0.11 |
| AAAATCACGTGTTATG | 0.09 |
| GGTAGCACGTGGTTTT | -0.1 |
| TCTAGCACGTGTTTGG | -0.01 |
| TGGCGCACGTGCGGGC | -0.02 |
| TTACTCACGTGGGTTT | 0.08 |
| GGTTCCACGTGTAAGT | 0.19 |
| CGTAGCACGTGCGGGA | -0.06 |
| GTAGGCACGTGATATT | 0 |
| TGTGGCACGTGGTTGC | -0.13 |
| TGGGTCACGTGTCAGC | 0.18 |
| TTTGTCACGTGACAAG | 0.09 |
| CTTACCACGTGGTGGG | -0.12 |
| GGGGCCACGTGAAGCG | 0.22 |
| TCAATCACGTGAGTGG | 0.4 |
| TTATCCACGTGGGGAG | 0.01 |
| GTTGGCACGTGATGTG | 0.11 |
| ATTGACACGTGAGTTT | 0.21 |
| TAGGCCACGTGTTAGG | -0.06 |
